# The whole screen tested about 210,000 compounds, of which about 5,900 (2.8%) were called active. The inconclusive results got no clear call from the source; some entries with a clear call stand among them for comparison. The call rests on the fitted dose curve; in most records, active means well fitted activation curve with a large enough effect; inconclusive means small, poorly fitted or top-dose-only effect; inactive means no such curve, though single readings can be large or run the other way. Potencies beside an inconclusive call are fits to weak or partial responses and may not hold up.
# Assay: qHTS Assay for Enhancers of SMN2 Splice Variant Expression; further: nearly all actives have a fitted effect of over 55% in size
# Conditions: HEK293 SMN2-luciferase splicing reporter, luminescence, 30-36 h; series mostly up to 46.1 µM
# Summary of the method: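 qHTS luciferase splicing reporter: luminescence rises when SMN2 exon 7 is included in transfected HEK293 cells. Compound exposure lasted 30-36 h at 37C, with 4.5 mM final sodium butyrate as control, followed by a ONE-Glo read.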
# Potency means the concentration at half of the fitted maximal effect; tags describe the fitted curve by direction and shape.
row,Compound,Potency
1,COc1cc(-c2nc3ccccc3s2)ccc1O,"inconclusive: 17.8 µM [activator, single point]"
2,Cc1cc(NC(=O)c2cc(-c3ccccc3)on2)n(-c2ccccc2)n1,"inconclusive: 22.4 µM [activator, single point]"
3,COc1ccc(/C=C/C(=O)c2ccccc2)c(OC)c1,"inconclusive: 12.6 µM [activator, partial curve]"
4,CCOC(=O)N1CCN(C(c2ccccc2)c2sc3nc(C)nn3c2O)CC1 (stereo unspecified),"inconclusive: 12.6 µM [activator, partial curve, poor fit]"
5,CN(C)C=NC(=O)/C(C#N)=C1\CCc2ccccc2N1,"inconclusive: 14.1 µM [activator, single point]"
6,COCCNC(=O)CCCn1c(SCc2ccccc2C)nc2c(sc3ccccc32)c1=O,"inconclusive: 5.62 µM [activator, single point]"
7,CCC(=O)Nc1ccc(-c2nc3ncccc3o2)cc1C,"inconclusive: 12.6 µM [activator, partial curve]"
8,Cc1ccc(NC(=O)/C(=C/c2ccco2)c2ccccc2)c(C)c1,"inconclusive: 3.16 µM [activator, single point]"
9,CC(=O)c1cccc(NC(=O)c2cc3sc(Cl)cc3n2C)c1,"inconclusive: 3.55 µM [activator, full curve]"
10,Cc1cccc(-c2nsc(SCC(=O)Nc3ccc4c(c3)OCO4)n2)c1,"inconclusive: 12.6 µM [activator, partial curve]"
11,COc1cc(/C=N/n2cnnc2)ccc1OCc1ccc(C)cc1,inactive
12,CC1CCN(C(=O)c2cc(-c3ccc(Cl)c(Cl)c3)on2)CC1,"inconclusive: 17.8 µM [activator, single point]"
13,Cc1ccc(-c2csc(NC(=O)CSc3nc4ccccc4o3)n2)cc1,active: 14.1 µM
14,CC1(C)CC(CC(=O)Nc2nccs2)(c2ccccc2)CCO1 (stereo unspecified),inactive
15,O=C(/C=C/c1ccc(F)cc1)NCCC1=CCCCC1,"inconclusive: 31.6 µM [activator, partial curve, poor fit]"
16,O=C(NNC(=O)c1ccc(F)cc1F)c1ccc2c(c1)OCO2,"inconclusive: 15.8 µM [activator, partial curve, poor fit]"
17,Cc1ccccc1OCC(=O)N1N=C(c2cccnc2)CC1(O)C(F)(F)F (stereo unspecified),"inconclusive: 0.02 µM [activator, full curve, poor fit]"
18,Cc1ccc(C(=O)Nc2ccc(CC(=O)O)cc2)o1,"inconclusive: 7.08 µM [activator, partial curve, poor fit]"
19,O=C(COC(=O)CNC(=O)c1ccco1)NCCN1C(=O)CSC1=O,inactive
20,O=C(NCCc1c[nH]c2ccccc12)c1cnccn1,"inconclusive: 12.6 µM [activator, partial curve]"
21,Fc1ccc(-n2nc(-c3ccccc3)c3cnc4ccccc4c32)cc1Cl,inactive
22,COc1ccccc1CNc1ncnc2c1nc1n2CCCC1,"inconclusive: 25.1 µM [activator, single point]"
23,Cc1c(/C=N/n2cnnc2)c2ccccc2n1C,inactive

row,Compound,Potency
1,COc1ccc2nc(NC(=O)C3COc4ccccc4O3)sc2c1 (stereo unspecified),active: 12.6 µM
2,COc1ccc(NC2CC(=O)N(C)C2=O)cc1 (stereo unspecified),"inconclusive: 3.98 µM [activator, full curve, poor fit]"
3,CC(C)C(=O)N1CCN(C2=NS(=O)(=O)c3ccccc32)CC1,"inconclusive: 28.2 µM [activator, partial curve, poor fit]"
4,Cn1c(=O)n(C)c2cc(/C=N/NC(=O)c3cccc(Br)c3)ccc21,"inconclusive: 4.47 µM [activator, full curve, poor fit]"
5,O=C(CSc1ncn(-c2ccccc2)n1)c1cccs1,"inconclusive: 31.6 µM [activator, single point]"
6,O=C(Nc1nc(-c2ccc3c(c2)Cc2ccccc2-3)cs1)c1ccccc1,inactive
7,Cc1cc(=O)oc2cc(Oc3ncccn3)ccc12,"inconclusive: 0.562 µM [activator, partial curve]"
8,COC(=O)[C@@]1(C)C=C[C@@H](Cc2ccccc2)N1C(=O)c1ccccc1,inactive
9,Cc1ccc(C(=O)N2N=C(CC(C)C)CC2(O)C(F)(F)F)o1 (stereo unspecified),"inconclusive: 35.5 µM [activator, single point]"
10,COc1ccc(Cn2c(CCC(=O)Nc3ccc(OC)c(Cl)c3)nc3cccnc32)cc1,inactive
11,Cc1nnc(NC(=O)C(C)Oc2ccc3c(C)cc(=O)oc3c2)s1 (stereo unspecified),"inconclusive: 3.55 µM [activator, full curve, poor fit]"
12,CCN1CCN(c2cc(C)c3cc(NC(=S)N(CC)CC)ccc3n2)CC1,"inconclusive: 35.5 µM [activator, single point]"
13,Cc1ccc(-c2cc(NC(=O)C(C)Oc3ccccc3F)on2)cc1 (stereo unspecified),"inconclusive: 7.08 µM [activator, partial curve, poor fit]"
14,Cc1ccc(S(=O)(=O)c2nc(C)c3c(n2)CCC3)cc1,inactive
15,CCCC(=O)Nc1nc2ccc3nc(C)sc3c2s1,"inconclusive: 10 µM [activator, partial curve]"
16,O=C(N/N=C/c1ccco1)c1cc(-c2ccc3ccccc3c2)n[nH]1,inactive
17,CCOC(=O)c1sc2nc(C)nc(Nc3ccc(OC)cc3)c2c1C,inactive
18,Clc1ccsc1-c1ccc2ccccc2n1,"inconclusive: 10 µM [activator, partial curve]"
19,Cc1cc(/C=N/NC(=O)c2cccnc2)c(C)n1CC(C)C,"inconclusive: 12.6 µM [activator, partial curve]"
20,Cc1c(C)c2ccc(OC3CCCCC3=O)cc2oc1=O (stereo unspecified),"inconclusive: 0.631 µM [activator, partial curve, poor fit]"
21,COC(=O)C1(C(=O)OC)CC2=CC(CC2=O)Cc2ccccc2[C@@H]1C[N+](=O)[O-] (stereo partly specified),inactive
22,O=C(Nc1ccc2c(c1)OCCO2)c1cc2sccc2n1Cc1ccc(F)cc1,inactive
23,COC(=O)c1ccc(C(/C=C/[C@@H](C)C(=O)N(C)Cc2ccccc2)NC(=O)OCc2ccccc2)cc1 (stereo partly specified),inactive

# Source: PubChem BioAssay AID1458 (National Center for Advancing Translational Sciences (NCATS), 2008)
